Experimental findings from PubChem BioAssay AID463173 (ICCB-Longwood Screening Facility, Harvard Medical School, 2010) are described below.

The structures appear in SMILES notation. Among all 52,000 compounds or so, about 1,700 (3.3%) were called active. No stated cut-off is given here; in the data, active means survival mostly below about 52% (no sharp cut-off); inactive means mostly above about 56%. The list shows a part of the results.

The test has as its system Wild type. Put plainly: growth inhibition of S. aureus wild type versus tarO mutant, primary screen, teichoic acid synthesis inhibitors, RN4220, OD600 (AID 463173). To be noted: S. aureus RN4220 wild type/DeltatarO growth, OD600, 18 h, stronger effect = lower value, screened at 18.75 µg/mL (by protocol).
With `Cc1ccc(C)c(-c2nn(CC(=O)Nc3cc(F)ccc3F)c(=O)c3c2CCCC3)c1`, the survival is inactive: 75%. As for `CCOc1cccc(CC(=O)N2CCc3c([nH]c4ccccc34)C2c2ccc(C)cc2)c1OCC` (configuration not stated), the figure is inactive: 83%; as for `COc1ccc(C(=O)Nc2ccc3c(c2)N(C2CCCC2)C(=O)c2ccccc2S3)cc1OC`, inactive: 67%; as for `COc1cc(C(=O)Nc2ccc(Cl)c(-c3nc4ncccc4o3)c2)cc(OC)c1OC`, inactive: 155%.

With `COC(=O)c1c(SC)nc2ccccc2c1OCc1ccc(C)cc1C`, the survival is inactive: 64%.

`Cc1ccc2onc(CC(=O)Nc3cc(F)ccc3F)c2c1`: the survival was inactive: 80%.

Consider `Cc1ccc(-c2cc(C(F)(F)F)n3nc(C(=O)Nc4sc5c(c4C#N)CCC(C)C5)cc3n2)cc1` (configuration not stated), for which the survival is inactive: 70%. As for `O=C(CSc1nnc2scc(-c3ccc(Cl)cc3)n12)Nc1ccccc1F`, the figure is inactive: 65%; as for `Cc1ccccc1CNC(=O)CCCn1c(=O)c2cccn2c2ccccc21`, inactive: 85%. As to `O=C(Cn1cc(S(=O)(=O)N2CCN(c3ccccc3F)CC2)c2ccccc2c1=O)Nc1cccc(C(F)(F)F)c1`, the survival was inactive: 77%. As for `N#Cc1c(/N=C/c2cccnc2)sc2c1CCC2`, the figure is inactive: 111%.

Turning to `CC1(C)CC(=O)C(C=NC2CC(C)(C)NC(C)(C)C2)=C(O)C1`, the survival is inactive: 101%. As for `CC(=O)c1ccc(N2CCN(S(=O)(=O)c3cc(-c4onc(C)c4C)ccc3C)CC2)cc1`, the figure is inactive: 69%. Then `Cc1cccc2c1-c1sc(C(=O)N3CCN(c4ccc(F)cc4)CC3)cc1CO2`, with inactive: 66%; and `O=C(COc1ccc(S(=O)(=O)N2CCCC2)cc1)N1CCCC1`, with inactive: 116%; and `O=C(NCCc1ccccc1)C(=O)NCC(c1cccnc1)N1CCN(c2ccccc2)CC1` (configuration not stated), with inactive: 82%. Take `COCCNC(=O)CN1C(=O)COc2ccc(S(=O)(=O)N3CCOCC3)cc21`: the survival was inactive: 85%. As for `CC(C)N(C(=O)CSc1nnnn1Cc1ccccc1)C(C)C`, the figure is inactive: 115%; as for `CCc1ccccc1N(C)C(=O)Nc1cn(CC(C)C)c(=O)c2ccccc12`, inactive: 132%. `C=Cc1ccc(CSc2nc(-c3ccccc3C)nc3c2Cc2c(CO)cnc(C)c2O3)cc1`: the survival was inactive: 80%. As for `CCC1CCCCN1S(=O)(=O)c1ccc2c(c1)CCCN2C(C)=O` (configuration not stated), the survival is inactive: 82%. As for `CCn1cc(C(=O)OCC(=O)Nc2cccc(Cl)c2C)c(=O)c2ccc(C)nc21`, the figure is inactive: 70%. Regarding `CCOc1ccc(CNC(=O)CCn2c(=O)c3cccn3c3cccnc32)cc1`, the survival was inactive: 93%. As for `N#Cc1ccc(NC(=O)COCc2cc(-c3ccc4c(c3)OCO4)on2)cc1`, the figure is inactive: 75%. As for `Cc1cc(N2CCN(C)CC2)nc2ccc(NC(=O)Nc3ccc(Cl)cc3)cc12`, the figure is inactive: 75%; as for `COC(=O)c1scc(-c2ccc(C)cc2)c1S(=O)(=O)Nc1ccc(OC(F)(F)F)cc1`, inactive: 72%. Then `CCOc1ccc(N2CC(NC(=O)c3ccc(S(=O)(=O)N4CCOCC4)cc3)CC2=O)cc1` (configuration not stated), with inactive: 60%; and `O=C(CSc1nc(=O)n(Cc2ccco2)c2c1CCC2)NCc1ccccc1Cl`, with inactive: 74%; and `Cc1ccc(/C(C#N)=C\c2cccs2)cc1`, with inactive: 124%. As to `Cc1cc(=O)n2nc(N3CCC(C(=O)NCCCOC(C)C)CC3)sc2n1`, the survival is inactive: 90%. In the case of `Cc1nn(-c2ccc(F)cc2)c(-n2cccc2)c1C(=O)N1CCCCC1C` (configuration not stated), the survival was inactive: 71%. Then `Cc1cc(NC(=O)c2oc3c(c2C)-c2[nH]ncc2CC3)ccc1Br`, with active: 1%; and `O=C(CSc1nnc(CNC(=O)c2ccccc2)n1-c1ccc(F)cc1)Nc1ccccc1F`, with inactive: 84%. Regarding `O=C(CC1NCCNC1=O)Nc1ccc(F)c(Cl)c1` (configuration not stated), the survival is inactive: 68%. Then `COc1ccc(Nc2ncc(C(=O)Nc3ccc(F)cc3F)c3ccccc23)cc1`, with inactive: 72%. As for `CCCCOc1ccc(C(=O)Nc2sc3c(c2C(=O)OCC)CCCCC3)cc1`, the figure is inactive: 38%. Then `COc1ccccc1N1CCN(S(=O)(=O)c2ccc3c(c2)CCCN3C(C)=O)CC1`, with inactive: 49%; and `CCOCCCn1c(SCC(=O)Nc2ccc(F)cc2)nc2c(sc3ccccc32)c1=O`, with inactive: 121%. Consider `CCC(C(=O)Nc1cc(-c2cn3cccnc3n2)ccc1C)c1ccccc1` (configuration not stated), for which the survival is inactive: 81%.

As for `CCc1cccc(NC(=O)Cn2c(-c3ccc(F)cc3)cc(C(C)=O)c2C)c1`, the survival was inactive: 75%. Then `O=C(c1ccc2c(c1)N(Cc1ccccc1Cl)C(=O)c1ccccc1S2)N1CCCC1`, with inactive: 72%; and `CCc1ccccc1-n1c(SCC(=O)Nc2ccc(C)cc2)nc2n[nH]c(C)c2c1=N`, with inactive: 73%.

Regarding `CCCCNS(=O)(=O)c1ccc(NC(=O)c2c(-c3ccccc3)noc2C)cc1`, the survival was inactive: 130%.

For the molecule `COc1ccc(CNC(=O)CSc2ncnc3nc[nH]c23)cc1`, the survival is inactive: 108%. Then `Cc1ccccc1CNC(=O)CN1CCSc2ccccc21`, with inactive: 71%; and `Nc1nc2nc(-c3ccccc3)cc(=O)n2[nH]1`, with inactive: 59%. Then `O=C(CC1CCCCC1)Nc1ccccn1`, with inactive: 115%. On to `COc1ccc(CCCC(=O)NN=Cc2ccco2)cc1`, for which the survival is inactive: 97%.

For the molecule `Fc1ccc(CNc2nc(-c3ccc(Cl)cc3)cc(C(F)(F)F)n2)cc1`, the survival is active: -5%. As for `COc1ccc(NC(=O)CN2CCCN(Cc3ccccc3)S2(=O)=O)cc1`, the figure is inactive: 72%; as for `CCCCOC(=O)c1ccc(NC(=O)c2ccc3c(c2)CCCN3S(C)(=O)=O)cc1`, inactive: 113%; as for `O=C(CSc1nc2ccccc2nc1Cc1ccc(Cl)cc1)N1CCCCC1`, inactive: 83%. As for `O=c1oc2ccccc2cc1-c1nc(-c2cccc(Cl)c2)cs1`, the figure is inactive: 75%. As for `COc1ccccc1N1CCN(c2ncc3c(n2)CCN(Cc2ccc(C)s2)C3)CC1`, the figure is inactive: 59%; as for `COc1ccc(Cl)cc1NC(=O)CSc1nc(-c2cccs2)cc(C(F)(F)F)n1`, inactive: 57%; as for `Cc1ccc(Cl)cc1N1CCN(C(=O)c2sc3nc4n(c(=O)c3c2C)CCC4)CC1`, inactive: 75%.

Consider `CCN(CC)C(=O)Cn1cc(SCC(=O)Nc2cc(OC)ccc2OC)c2ccccc21`, for which the survival was inactive: 101%. As for `CN(C)CCNC(=O)c1ccc2nc(Cc3ccccc3)oc2c1`, the figure is inactive: 99%; as for `COc1ccc(Cl)cc1NC(=O)CSc1cc(C)[nH]c(=O)n1`, inactive: 71%. Then `N#Cc1ccc(C2NC(=O)NC3=C2C(=O)OC3)cc1` (configuration not stated), with inactive: 114%; and `Cc1cccn2c(=O)cc(CSc3nnc(NC(=O)C(C)C)s3)nc12`, with inactive: 119%. As for `CCCCc1c(C)[nH]c2ccccc2c1=O`, the figure is inactive: 109%; as for `Cc1ccccc1C(=O)Nc1sc2c(c1C(=O)N1CCCCC1)CCC(C(C)(C)C)C2` (configuration not stated), active: 1%; as for `CCC(CC)C(=O)Nc1ccc2nc(SCC(=O)N3CCOCC3)sc2c1`, inactive: 87%. For the molecule `Cc1ccc(CSc2nc3ccc(NC(=O)CC(C)C)cc3s2)cc1`, the survival was inactive: 89%. As for `CCC(C)n1c(SCc2ccc(F)cc2Cl)nc2ccsc2c1=O` (configuration not stated), the figure is inactive: 133%. Then `CCOC(=O)c1noc2ncn(Cc3ccc([N+](=O)[O-])cc3)c(=O)c12`, with inactive: 136%. Then `O=C(NCc1ccc(Cl)cc1)C1CCN(S(=O)(=O)c2ccc(F)cc2)CC1`, with inactive: 80%.

For `CSc1ccc(CCNC(=O)c2c(C)nn(-c3ccc(F)cc3)c2-n2cccc2)cc1`, the survival is inactive: 81%. As for `Cc1ccc(CSc2nnc([C@@H](N)C(C)C)o2)cc1`, the figure is inactive: 85%. Then `Cc1c(C)c2c(cc(C)c3c(-c4ccc(Br)cc4)coc32)oc1=O`, with inactive: 81%. Then `CCOC(=O)c1cccc(NC(=O)CCn2c(=O)oc3ccccc32)c1`, with inactive: 69%; and `CCC(Oc1ccccc1)C(=O)Nc1cccc(OCc2cc(=O)n3cccc(C)c3n2)c1` (configuration not stated), with inactive: 121%. With `O=C(CN1CCC(C(=O)c2ccccc2)CC1)NCc1cccs1`, the survival was inactive: 92%. In the case of `CC(=O)c1ccc(NC(=O)Cn2c(=O)cc(C)c3c(C)nn(-c4cccc(F)c4)c32)cc1`, the survival is inactive: 71%. As for `COc1cccc(NC(=O)CSc2nc(C)c(Cc3ccccc3)c(=O)[nH]2)c1`, the figure is inactive: 69%; as for `CCOC(=O)c1c(C)[nH]c(C)c1S(=O)(=O)NCC(=O)Nc1cccc(SC)c1`, inactive: 87%; as for `CCC1CCc2nc3sc(C(=O)Nc4cccc(F)c4)c(N)c3cc2C1` (configuration not stated), inactive: 111%. As for `Cc1cccc(NC(=O)Cn2cc(S(=O)(=O)N3CCCC3)c(S(=O)(=O)N3CCCC3)c2)c1C`, the figure is inactive: 138%; as for `Oc1cccc(C(O)CNc2c3c(nc4cc(-c5cccc(F)c5)nn24)CCC3)c1` (configuration not stated), inactive: 99%; as for `CC12CCC(C/C1=N\OC(=O)O)C2(C)C` (configuration not stated), inactive: 88%. On to `CCN(CC)c1ccc(C(=O)NCc2nc3cccnc3n2Cc2ccc(C)cc2)cc1`, for which the survival is inactive: 100%. `Cc1cccc(-c2nc3c4c(-c5ccccc5)c(-c5ccccc5)oc4ncn3n2)c1`: the survival is inactive: 135%. As for `Cc1cc(C)n(C(=O)c2ccccc2C(=O)O)n1`, the figure is inactive: 107%; as for `CCCCOc1ccc(C2=NC(c3cccs3)=Nc3ccc(OC)cc3N2)cc1`, inactive: 124%; as for `COc1ccc(OC)c(CNC(=O)c2c(C)oc3ncn(CC(C)C)c(=O)c23)c1`, inactive: 71%. Take `COc1cccc2sc(N(Cc3cccnc3)C(=O)c3ccco3)nc12`: the survival is inactive: 78%. In the case of `Cc1nn(C)c(C)c1S(=O)(=O)N(CC(=O)NCCc1ccc(Cl)cc1)c1ccc(C(C)C)cc1`, the survival is inactive: 84%.

In the case of `Cc1cccc(NC(=O)c2cnc3sc(N4CCCC4)nn3c2=O)c1C`, the survival is inactive: 102%. As for `COc1ccc(NC(=O)c2c(NCc3cccc(F)c3)sc3c2CCC3)c(OC)c1`, the figure is inactive: 77%.

For the molecule `CC1CC(C)CN(C(=O)Cn2cnc3c2c(=O)n(C)c(=O)n3C)C1` (configuration not stated), the survival was inactive: 114%. As for `O=C(NCC(c1cccnc1)N1CCN(c2ccccc2F)CC1)c1ccc(F)cc1` (configuration not stated), the figure is inactive: 83%.
